B1: PhoQ; a variant is named by its letters at X, in order, P23837 (parent)
chain: MKKLLRLFFPLSLRVRFLLATAAVVLVLSLAYGMVALIGYSVSFDKTTFRLLRGESNLFYTLAKWENNKLHVELPENIDKQSPTMTLIYDENGQLLWAQRDVPWLMKMIQPDWLKSNGFHEIEADVNDTSLLLSGDHSIQQQLQEVREDDDDAEMTHSVAVNVYPATSRMPKLTIVVVDTIPVELKSSYMVWSWFIYVLSANLLLVIPLLWVAAWWSLRPIEALAKEVRELEEHNRELLNPATTRELTSLVRNLNRLLKSERERYDKYRTTLTDLTHSLKTPLXXLQXXLRSLRSEKMSVSDAEPVMLEQISRISQQIGYYLHRASMRGGTLLSRELHPVAPLLDNLTSALNKVYQRKGVNISLDISPEISFVGEQNDFVEVMGNVLDNACKYCLEFVEISARQTDEHLYIVVEDDGPGIPLSKREVIFDRGQRVDTLRPGQGVGLAVAREITEQYEGKIVAGESMLGGARMEVIFGRQHSAPKDE

The list shows a part of the results.

This assay covers variants of B1. The assay can be described thus: enrichment ratio after two sorts for PhoP signalling (ratio (wild type AVST 3.29)); higher = more functional. The note with it: with PhoP (E. coli).
In the case of LDYH, the enrichment ratio is ≤ 0.25.
Regarding RYCA, the enrichment ratio was ≤ 0.25.
On to QSPL, for which the enrichment ratio is ≤ 0.25.
The result for PHFV reads ≤ 0.25; that for EFFL, ≤ 0.25.
On to DFCG, for which the enrichment ratio was ≤ 0.25.
The result for TTIC reads ≤ 0.25; that for PQLE, ≤ 0.25; that for MWHS, ≤ 0.25.
With EGGG, the enrichment ratio is ≤ 0.25.
The result for TFGL reads 0.381.
The result for DICK reads ≤ 0.25; that for MPQT, ≤ 0.25; that for GITW, 1.88.
The result for MCIT reads ≤ 0.25; that for GPCY, ≤ 0.25; that for YEHR, ≤ 0.25.
Consider FNFC, for which the enrichment ratio was ≤ 0.25.
In the case of AELA, the enrichment ratio worked out at 18.7.
Consider PSRT, for which the enrichment ratio is ≤ 0.25.
In the case of KHKY, the enrichment ratio was ≤ 0.25.
As for MYWW, the enrichment ratio was ≤ 0.25.
The result for GDQA reads ≤ 0.25; that for SEDL, ≤ 0.25; that for TKSK, ≤ 0.25.
Next, VQVG: ≤ 0.25; RFLQ: ≤ 0.25.
Take DGTV: the enrichment ratio was ≤ 0.25.
The result for FFRV reads ≤ 0.25; that for QLSR, ≤ 0.25.
For the variant QPQS, the enrichment ratio was ≤ 0.25.
The result for AFIQ reads ≤ 0.25.
The result for DVED reads ≤ 0.25; that for IRSD, ≤ 0.25.
The result for DDYY reads ≤ 0.25; that for DILY, ≤ 0.25.
Regarding ISDC, the enrichment ratio was ≤ 0.25.
Next, SSRS: ≤ 0.25; IRSF: ≤ 0.25; TPSM: ≤ 0.25.
Take YSRS: the enrichment ratio was ≤ 0.25.
The result for NHCV reads ≤ 0.25.
The result for NSFW reads ≤ 0.25; that for GFKQ, ≤ 0.25.
Next, NYCA: ≤ 0.25.
In the case of KDNS, the enrichment ratio is ≤ 0.25.
Take DMYS: the enrichment ratio is ≤ 0.25.
Take DLCT: the enrichment ratio was ≤ 0.25.
Next, QQYE: ≤ 0.25; HRDA: ≤ 0.25; PKNK: ≤ 0.25.
Next, FVTC: ≤ 0.25.
The result for IMAN reads ≤ 0.25; that for ISPD, ≤ 0.25.
As to RGCP, the enrichment ratio was ≤ 0.25.
Next, IHTD: ≤ 0.25; KIFS: ≤ 0.25.
Next, IHCV: ≤ 0.25; AEKP: ≤ 0.25; EYVN: ≤ 0.25.
NGDI: the enrichment ratio is ≤ 0.25.
The result for RVKI reads ≤ 0.25.
For the variant GLSI, the enrichment ratio worked out at 11.
The result for LTKH reads ≤ 0.25; that for HEHT, ≤ 0.25.
Next, SMAL: 8.61; SREY: ≤ 0.25.
Next, SQHL: ≤ 0.25; VKMK: ≤ 0.25.
In the case of WKAM, the enrichment ratio was ≤ 0.25.
Next, RVFI: ≤ 0.25; FFNM: ≤ 0.25; LEWQ: ≤ 0.25.
Regarding LFPY, the enrichment ratio is ≤ 0.25.
Next, RLMP: ≤ 0.25; GYVG: ≤ 0.25; SWEP: ≤ 0.25.
The result for GQWM reads ≤ 0.25.
Turning to KKYS, the enrichment ratio is ≤ 0.25.
On to MFPK, for which the enrichment ratio is ≤ 0.25.
In the case of VRSN, the enrichment ratio is ≤ 0.25.
Next, ECKC: ≤ 0.25; VKSW: ≤ 0.25; RGDT: ≤ 0.25.
As to MEHF, the enrichment ratio is ≤ 0.25.
Next, IEMR: ≤ 0.25; MKWL: 4.42.
The result for ESIA reads ≤ 0.25.
On to QVLD, for which the enrichment ratio is ≤ 0.25.
Next, NWHR: ≤ 0.25.
The result for QSCC reads ≤ 0.25; that for KFKW, ≤ 0.25.
With WCQK, the enrichment ratio is ≤ 0.25.
Next, RRKC: ≤ 0.25; RDSK: ≤ 0.25.
The result for PCIR reads ≤ 0.25; that for VYAQ, ≤ 0.25.
Next, KYFY: ≤ 0.25; MLHQ: ≤ 0.25; YSHF: ≤ 0.25.
As for WASP, the enrichment ratio was ≤ 0.25.
Next, PAKC: ≤ 0.25; DDNA: ≤ 0.25; TGNK: ≤ 0.25.
Regarding HQEM, the enrichment ratio is ≤ 0.25.
Next, INNN: ≤ 0.25; RNDQ: ≤ 0.25.
Next, EHKC: ≤ 0.25.
Next, VDSK: ≤ 0.25.
On to MGQK, for which the enrichment ratio is ≤ 0.25.
The result for SSTW reads ≤ 0.25.
With VMMS, the enrichment ratio was ≤ 0.25.
Next, PSDD: ≤ 0.25; PEGT: ≤ 0.25.
The result for MDVF reads ≤ 0.25.
Next, CQVY: 5.8; VKFA: ≤ 0.25; SKIM: 20.9.
On to DKCQ, for which the enrichment ratio was ≤ 0.25.
The result for NCFS reads ≤ 0.25.
Next, WLYQ: ≤ 0.25.
Next, SSMI: 19; SLPD: ≤ 0.25; GWHK: ≤ 0.25.
As for QQLP, the enrichment ratio was ≤ 0.25.
For KAHK, the enrichment ratio is ≤ 0.25.
On to TEFH, for which the enrichment ratio came out at 12.1.
Next, DRAE: ≤ 0.25; WMPG: ≤ 0.25; RLTI: ≤ 0.25.
The result for AIPN reads ≤ 0.25; that for IIAS, ≤ 0.25; that for IYLQ, ≤ 0.25.
The result for YENM reads ≤ 0.25; that for MYSK, 0.585; that for DMNG, ≤ 0.25.
For SNMY, the enrichment ratio was 6.32.
On to MAWN, for which the enrichment ratio is 23.5.
Next, IIQF: ≤ 0.25; DIIP: ≤ 0.25; KYVG: ≤ 0.25.
The result for LIST reads ≤ 0.25; that for ICEH, ≤ 0.25.
The result for QLYN reads ≤ 0.25; that for WSDT, ≤ 0.25.
Turning to HDSC, the enrichment ratio was ≤ 0.25.
Consider LLGF, for which the enrichment ratio is ≤ 0.25.
For IWDT, the enrichment ratio was ≤ 0.25.
The result for GFPN reads ≤ 0.25.
Turning to EFFD, the enrichment ratio is ≤ 0.25.
The result for DFSR reads 0.643; that for SFRK, ≤ 0.25.
The result for RPSS reads ≤ 0.25.

These data come from a collection of fitness landscapes (doi:10.1126/science.1257360).
